Reference: PubChem BioAssay AID1259407 (Chemical Carcinogenesis Research Information System (CCRIS), 2018)
The source holds more than one record for some entries. This list holds those alone. How the calls were made is not given here. There may be further records. Values given together are repeated measurements in other runs, samples, wells, individuals or studies. What stands in brackets tells the records apart. The letters are not those of the source and start again with each entry.

System: CCRIS mutagenicity, Ames/micronucleus/aberration tests
Assay: CCRIS mutagenicity studies
Settings: Test System: AMES SALMONELLA TYPHIMURIUM

In the case of `COc1cc([C@@H]2c3cc4c(cc3[C@@H](O[C@@H]3O[C@@H]5CO[C@@H](c6cccs6)O[C@H]5[C@H](O)[C@H]3O)[C@H]3COC(=O)[C@H]23)OCO4)cc(OC)c1O`, the mutagenic call (Strain/Indicator: TA102, Metabolic Activation: NONE, Method: STANDARD PLATE) is reported as “active; positive [study A, 250 µg/plate] and inactive; negative [study B, 0 to 100 µg/plate]”.
In the case of `c1ccc2ncccc2c1`, the mutagenic call (Strain/Indicator: TA1537, Metabolic Activation: RAT, LIVER, S-9, AROCLOR 1254, Method: STANDARD PLATE) is reported as “active; positive [study A] and inactive; negative [study B, 5 to 200 µg/plate]”.
In the case of `O=C1c2ccccc2C(=O)c2ccccc21`, the mutagenic call (Strain/Indicator: TA98, Metabolic Activation: HAMSTER, LIVER, S-9, AROCLOR 1254 (30%), Method: PREINCUBATION) is reported as “active; positive; 97% pure [study A] and active; positive [study B]”, the mutagenic call (Strain/Indicator: TA98, Metabolic Activation: RAT, LIVER, S-9, AROCLOR 1254 (30%), Method: PREINCUBATION) is reported as “active; positive; 97% pure [study A] and active; positive [study B]” and the mutagenic call (Strain/Indicator: TA100, Metabolic Activation: HAMSTER, LIVER, S-9, AROCLOR 1254 (30%), Method: PREINCUBATION) is reported as “active; positive; 97% pure [study A] and active; positive [study B]”. For the same molecule, the mutagenic call (Strain/Indicator: TA100, Metabolic Activation: RAT, LIVER, S-9, AROCLOR 1254 (30%), Method: PREINCUBATION) was “active; positive; 97% pure [study A] and active; positive [study B]”.
